In all, about 110,000 compounds were measured (“z-score”: median about -0.1, highest 2% from about 2 on). This is one part of the list. Activity calls are given as the source filed them.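 The calls were made as follows: active = z-score in the third read window above 3 or below -3; inactive = the rest.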
Target: Metabotropic glutamate receptor 8 (Rattus norvegicus) (UniProt P70579)
Experiment: rat mGluR8 modulators via GIRK flux, primary screen, cell-based, thallium flux, HTS (AID 488969)
Conditions: HEK293 rat mGluR8, GIRK (G protein-gated inwardly rectifying potassium channel) thallium flux, FluoZin2; at 10 µM; stronger effect = higher value; submaximal glutamate (EC20) added with thallium

UniProt P70579, sequence (P70579 whole entry, looked up): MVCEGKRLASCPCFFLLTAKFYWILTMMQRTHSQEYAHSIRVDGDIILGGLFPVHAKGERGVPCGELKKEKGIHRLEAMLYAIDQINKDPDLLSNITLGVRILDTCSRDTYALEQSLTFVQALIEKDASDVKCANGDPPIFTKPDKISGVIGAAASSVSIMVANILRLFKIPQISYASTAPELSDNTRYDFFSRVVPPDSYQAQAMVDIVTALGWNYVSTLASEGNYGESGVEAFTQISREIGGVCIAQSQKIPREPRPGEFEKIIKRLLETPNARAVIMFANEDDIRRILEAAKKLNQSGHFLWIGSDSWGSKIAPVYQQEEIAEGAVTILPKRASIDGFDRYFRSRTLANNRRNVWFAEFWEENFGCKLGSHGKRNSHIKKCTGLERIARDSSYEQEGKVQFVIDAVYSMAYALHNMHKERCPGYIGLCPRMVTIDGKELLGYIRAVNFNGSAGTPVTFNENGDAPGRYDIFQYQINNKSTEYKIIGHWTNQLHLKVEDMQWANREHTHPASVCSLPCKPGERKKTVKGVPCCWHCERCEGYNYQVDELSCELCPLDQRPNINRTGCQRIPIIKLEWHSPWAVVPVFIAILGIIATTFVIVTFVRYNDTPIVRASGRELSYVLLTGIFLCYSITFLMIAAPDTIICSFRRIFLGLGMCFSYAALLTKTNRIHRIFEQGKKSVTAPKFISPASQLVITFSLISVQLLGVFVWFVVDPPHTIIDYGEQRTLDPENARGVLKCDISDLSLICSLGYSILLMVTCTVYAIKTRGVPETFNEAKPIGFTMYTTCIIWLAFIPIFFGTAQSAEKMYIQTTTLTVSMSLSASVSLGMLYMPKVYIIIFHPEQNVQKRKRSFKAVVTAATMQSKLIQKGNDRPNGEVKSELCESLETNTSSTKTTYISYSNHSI

Question: For `CC(C)(C)c1csc(NC(=O)c2ccc3nccnc3c2)n1`, which z-score is on record?
Answer: The z-score was active: 5.29.

Question: For `Cc1ccc(CSc2ncn(-c3ccccc3)n2)cc1`, which z-score is on record?
Answer: Its z-score is 0.0447.

Question: With `Cn1nnc(NC(=O)CSc2ccc(Cl)cc2)n1` as the compound, how does the z-score read?
Answer: Its z-score is 0.386.

Question: `CCOC(=O)c1nc(S(C)(=O)=O)ncc1N1CCOCC1` was tested. Which z-score did it give?
Answer: Its z-score is 1.31.

Question: For `O=C(c1cccc(S(=O)(=O)N2CCCC2)c1)c1cccc(S(=O)(=O)N2CCCC2)c1`, which z-score is on record?
Answer: Its z-score is 0.0227.

Question: How did the z-score turn out when `S=C(NCc1ccccc1)NCc1ccccc1` was run?
Answer: The z-score was 0.346.

Question: `O=C(Cc1ccc(F)cc1)N1CCN=C1SCc1ccc([N+](=O)[O-])cc1` was tested. Which z-score did it give?
Answer: Its z-score is -0.0378.

Question: For `C=CCOC(=O)C1=C(C)NC(SC)=C(C#N)C1c1ccc(OCC)cc1` (configuration not stated), which z-score is on record?
Answer: The z-score was -0.421.

Question: `COc1ccc(Cl)cc1S(=O)(=O)n1ccnc1C(C)C` was tested. Which z-score did it give?
Answer: The z-score was -0.0773.

Question: Which z-score does the source give for `O=C(Oc1ccc(N(Cc2cccs2)C2=NS(=O)(=O)c3ccccc32)cc1)c1ccccc1` here?
Answer: The z-score was -0.255.

Question: Which z-score does the source give for `CCOC(=O)N1CCN(CC(O)COCc2cc(OC)c(OC)c(OC)c2)CC1` (configuration not stated) here?
Answer: The z-score was -0.259.

Question: `CCOC(=O)c1sc2nc(CC(=O)OC)nc(NCc3ccc(Cl)cc3)c2c1C` was tested. Which z-score did it give?
Answer: The z-score was -0.0302.

Question: `CCCOc1ccc(NC(=O)CC2C(=O)N(CC)C(=S)N2Cc2cccs2)cc1` (configuration not stated) was tested. Which z-score did it give?
Answer: The z-score was -0.227.

Question: With `O=C(Nc1cccnc1)C1CCN(S(=O)(=O)c2cccc3nonc23)CC1` as the compound, how does the z-score read?
Answer: Its z-score is -0.148.

Question: Which z-score does the source give for `N#CC(=C1CCCC1)c1nc(-c2cc3ccccc3oc2=O)cs1` here?
Answer: The z-score was -0.96.

Question: Which z-score does the source give for `CCc1ccccc1NC(=O)C(C#N)Cc1cccnc1` (configuration not stated) here?
Answer: The z-score was 0.345.

Question: How did the z-score turn out when `Clc1ccc(CN=C2Nc3ccccc3CS2)cc1` was run?
Answer: Its z-score is -0.0923.

Question: Which z-score does the source give for `Cc1ccc(N2CC(C(=O)Nc3cccnc3)CC2=O)cc1` (configuration not stated) here?
Answer: Its z-score is -0.238.

Question: How did the z-score turn out when `CC(C)CC(=O)Nc1ccc(OCC(=O)O)cc1` was run?
Answer: The z-score was -0.149.

Question: For `Cn1c(CCN2CCN(c3ccccc3)CC2)nc2cc(NC(=O)c3ccco3)ccc21`, which z-score is on record?
Answer: The z-score was -0.501.

Question: How did the z-score turn out when `O=C(CN1CCc2ccccc21)NC(=O)NCc1ccco1` was run?
Answer: Its z-score is 0.562.

Question: Which z-score does the source give for `O=[N+]([O-])c1c(NCCCO)cc(Sc2ccc(Cl)cc2)c2nonc12` here?
Answer: The z-score was -0.105.

Question: With `CC(=O)N1c2ccccc2NC(=O)C1(C)C` as the compound, how does the z-score read?
Answer: The z-score was -0.113.

Question: Which z-score does the source give for `Oc1sc(C=Nc2ccc(F)cc2)c2ccccc12` here?
Answer: Its z-score is 0.0762.

Question: How did the z-score turn out when `Cc1cc(C)n(-c2ccc(C(=O)Nc3ccccc3N3CCOCC3)cc2)n1` was run?
Answer: The z-score was 0.328.

Question: `CC(C)C(=O)Nc1ccc(C(=O)NNC(=O)c2ccco2)cc1` was tested. Which z-score did it give?
Answer: Its z-score is 0.22.

Question: How did the z-score turn out when `COc1cc(S(=O)(=O)Nc2ccccc2)ccc1NC=O` was run?
Answer: Its z-score is -0.154.

Question: `O=C(Nc1nnc(CCN2CCCCC2)s1)C1CCCCC1` was tested. Which z-score did it give?
Answer: Its z-score is 0.738.

Question: Which z-score does the source give for `COc1cc2nc(=S)n3[nH]c(COc4ccccc4C)nc3c2cc1OC` here?
Answer: Its z-score is -0.498.

Question: How did the z-score turn out when `Cc1ccccc1-n1c(-c2csc3ccccc23)n[nH]c1=S` was run?
Answer: Its z-score is 0.627.

Question: With `Nc1nnc(SCc2ccccc2Cl)s1` as the compound, how does the z-score read?
Answer: Its z-score is -0.1.

Question: Which z-score does the source give for `CC(=O)Nc1ccc(C(=O)N/N=C(\C)CC(=O)Nc2ccc(OCc3ccccc3)cc2)cc1` here?
Answer: Its z-score is -0.00625.

Question: With `CCC(C)[C@@H](C(=O)Nc1ccc2c(c1)OCO2)N1Cc2ccccc2C1=O` (some centres not stated) as the compound, how does the z-score read?
Answer: The z-score was -0.331.

Question: `CCOc1ccc(-c2nnc(SCC(=O)N3CCOCC3)o2)cc1` was tested. Which z-score did it give?
Answer: The z-score was -0.569.

Question: `COC(=O)[C@H](Cc1ccccc1)NC(=O)N1CCC(C)CC1` was tested. Which z-score did it give?
Answer: Its z-score is -0.214.

Question: `Cn1ccnc1SCc1cn2cc(Br)ccc2n1` was tested. Which z-score did it give?
Answer: Its z-score is -0.0673.

Question: `O=c1cc2c(n[nH]1)CCCC2` was tested. Which z-score did it give?
Answer: The z-score was 1.72.

Question: For `CCOc1cc(C(c2c(C)[nH][nH]c2=O)c2c(C)[nH][nH]c2=O)ccc1OS(=O)(=O)c1ccccc1`, which z-score is on record?
Answer: The z-score was -0.256.

Question: With `COc1ccc(N2CCN(c3ncnc4c3nnn4Cc3ccccc3Cl)CC2)cc1` as the compound, how does the z-score read?
Answer: The z-score was 0.0466.

Question: How did the z-score turn out when `C=CCOc1c(CNc2nccs2)cccc1OCC` was run?
Answer: The z-score was -0.513.

Question: `CC[n+]1c(P(=O)([O-])c2ccccc2)[nH]c2ccccc21` was tested. Which z-score did it give?
Answer: Its z-score is 0.0907.

Question: How did the z-score turn out when `CCC(=O)N1CCN(c2ccc(NC(=O)COc3ccccc3Cl)cc2)CC1` was run?
Answer: Its z-score is -0.324.

Question: `COc1cccc(C2=NO[C@@H]3C(=O)N(Cc4ccccc4)C(=O)[C@H]23)c1OC` was tested. Which z-score did it give?
Answer: Its z-score is -0.345.

Question: How did the z-score turn out when `Cc1cc(-n2c(C)cc(C(=O)CSc3nnnn3-c3ccc(Cl)cc3)c2C)no1` was run?
Answer: The z-score was -0.366.

Question: How did the z-score turn out when `CCOc1ccc(N2CC(=O)Nc3ccccc3NCC2=O)cc1` was run?
Answer: The z-score was 1.28.

Question: For `COn1c(SC(C)C)nc2ccccc2c1=O`, which z-score is on record?
Answer: The z-score was -0.948.

Question: For `O=C1C=C(NNC(=O)c2ccccc2Br)CCC1`, which z-score is on record?
Answer: The z-score was -0.139.

Question: How did the z-score turn out when `C=CCOC(=O)/C(=C\c1ccc(OC)cc1)NC(=O)c1ccco1` was run?
Answer: Its z-score is 0.305.

Question: Which z-score does the source give for `Cc1nn(CC(O)CN2c3ccccc3Sc3ccccc32)c(C)c1Br` (configuration not stated) here?
Answer: The z-score was -0.414.

Question: For `O=C(Nc1ccccc1)c1cccc(S(=O)(=O)NCc2ccco2)c1`, which z-score is on record?
Answer: The z-score was 0.186.

Question: With `O=C(CN(Cc1ccco1)C(=O)c1cccc(Cl)c1)Nc1c(Cl)cc(Cl)cc1Cl` as the compound, how does the z-score read?
Answer: Its z-score is -0.377.

Question: With `O=C(Cc1cccs1)N(c1ccc(F)cc1)C1(C(=O)NC2CCCCC2)CCCC1` as the compound, how does the z-score read?
Answer: Its z-score is -0.0595.

Question: For `COc1ccc(/C(N)=N/OC(=O)Cc2cccs2)cc1OC`, which z-score is on record?
Answer: The z-score was -0.267.

Question: With `COc1ccc(S(=O)(=O)N2CCN(S(=O)(=O)c3ccc4c(c3)OCCO4)CC2)cc1C` as the compound, how does the z-score read?
Answer: The z-score was 0.899.

Question: `CCN1CCN(CC(O)COC(C)C)CC1` (configuration not stated) was tested. Which z-score did it give?
Answer: The z-score was -0.109.

Question: For `O=C(c1cccc(N2C(=O)C3CC=CCC3C2=O)c1)N1CCN(c2ccccc2)CC1` (configuration not stated), which z-score is on record?
Answer: Its z-score is -0.0909.

Question: Which z-score does the source give for `CCC(=O)Nc1ccc(C(=O)CSc2nnc(CNc3ccc(Cl)cc3)o2)cc1OC` here?
Answer: Its z-score is -0.38.

Question: With `CC(C(=O)Nc1cccc(Br)c1)c1ccc([N+](=O)[O-])cc1` (configuration not stated) as the compound, how does the z-score read?
Answer: The z-score was -0.268.

Question: `Cc1ccc(NC(=O)N2CCCC2C(=O)Nc2ccc(-n3cnnn3)c(C)c2)cc1` (configuration not stated) was tested. Which z-score did it give?
Answer: Its z-score is -0.415.

Question: For `CCOC(=O)C(=O)NNc1ccccc1C`, which z-score is on record?
Answer: Its z-score is 0.0736.

Question: For `CC(=O)Nc1ccc2c(c1)c1ccccc1n2C(C)=O`, which z-score is on record?
Answer: The z-score was -0.0481.

Question: `Cc1cccc(NS(=O)(=O)c2ccc(C)c(C(=O)OCC(=O)Nc3cc(C)on3)c2)c1` was tested. Which z-score did it give?
Answer: Its z-score is -0.0733.

Question: Which z-score does the source give for `C=CCN1C(=O)CS/C1=N/c1nccs1` here?
Answer: Its z-score is -0.225.

Question: With `CCOC(=O)c1ccc(NC(=O)CSc2nc(NC(=O)c3ccccc3)c3c(C)c(C)oc3n2)cc1` as the compound, how does the z-score read?
Answer: The z-score was 0.297.

Question: Which z-score does the source give for `CCS(=O)(=O)NCCc1cc2cc(C)c(C)cc2[nH]c1=O` here?
Answer: The z-score was -0.163.

Question: `CCCC1=C(C(=O)OCC)C(c2ccc(F)cc2)n2ncnc2N1` (configuration not stated) was tested. Which z-score did it give?
Answer: The z-score was active: -3.56.

Question: With `CC(=O)N1CCN(CC(=O)Nc2ccc(Cl)c(S(=O)(=O)N(C)C)c2)CC1` as the compound, how does the z-score read?
Answer: Its z-score is -0.0302.

Question: `COC(=O)/C(=C\c1ccc2c(c1)c1ccccc1n2C)NC(=O)c1ccccc1` was tested. Which z-score did it give?
Answer: Its z-score is -0.351.

Question: For `O=[N+]([O-])c1cccc(-c2nnc3c4ccccc4c4ccccc4n23)c1`, which z-score is on record?
Answer: The z-score was 0.134.

Question: How did the z-score turn out when `Cc1ccc(NC(=O)c2ccc(OC(=O)c3ccco3)cc2)cc1` was run?
Answer: The z-score was -0.336.

Question: With `Cc1ccc(NC(=S)N2CCN(Cc3ccccc3)CC2)c(C)c1` as the compound, how does the z-score read?
Answer: Its z-score is -0.121.

Question: How did the z-score turn out when `Cc1csc(NC(=O)C2CCCN(S(=O)(=O)c3ccc(Br)s3)C2)n1` (configuration not stated) was run?
Answer: Its z-score is -1.92.

— PubChem BioAssay AID488969 (Vanderbilt High Throughput Screening Facility, 2010)
